For 23 molecules, EC50 results are on record in patent publication US20250066451A1 (SWEDISH ORPHAN BIOVITRUM AB PUBL, published 2025).

First the molecules themselves.
T1: Human IL-1R-I-Fc (Creative BioMart cat. no. IL1RI-771H) (human, UniProt P14778 18-332, limits assumed)
T1 construct: bought protein; also called hIL-1R-I-Fc; hIL-1RI-Fc
T1 sequence (looked up): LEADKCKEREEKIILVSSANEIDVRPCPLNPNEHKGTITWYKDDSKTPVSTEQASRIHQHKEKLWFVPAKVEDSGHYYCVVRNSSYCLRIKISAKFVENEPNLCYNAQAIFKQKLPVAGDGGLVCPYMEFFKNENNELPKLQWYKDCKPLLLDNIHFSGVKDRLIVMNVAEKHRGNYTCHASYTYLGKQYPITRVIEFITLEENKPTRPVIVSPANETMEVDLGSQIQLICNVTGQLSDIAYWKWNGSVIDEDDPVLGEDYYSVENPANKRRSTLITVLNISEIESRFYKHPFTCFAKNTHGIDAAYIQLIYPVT

B1: Z16206-ABD (designed binder)
chain: AQHDEALEVDAKYAKEVEEAQMEIFNLPNLTRKQYTAFIRKLFDDPSQSSELLSEAKKLNDSQAPKVDYVLAEAKVLANRELDKYGVSDYYKNLINNAKTVEGVKALIDEILAALPYVPG
B2: Z16243-ABD (designed binder)
chain: B1 chain with Q21Y, F25Y, N26Q, F43L
B3: Z16246-ABD (designed binder)
chain: B1 chain with E19D, Q21Y, N26K, F43L
B4: Z16241-ABD (designed binder)
chain: B1 chain with E19D, Q21Y, M22W, F25Y, N26A, F43L
B5: Z16234-ABD (designed binder)
chain: B1 chain with E19D, Q21Y, M22Y, F25Y, N26S, F43L
B6: Z16277-ABD (designed binder)
chain: B1 chain with E19D, Q21Y, M22Y, F25Y, N26E, F43L
B7: Z16302-ABD (designed binder)
chain: B1 chain with E19T, Q21Y, M22F, F25Y, F43L
B8: Z16319-ABD (designed binder)
chain: B1 chain with V17I, N26S
B9: Z16255-ABD (designed binder)
chain: B1 chain with V17T, E19D, Q21Y, F25Y, N26A, F43L
B10: Z16377-ABD (designed binder)
chain: B1 chain with V17T, E19R, N26Y, F43L
B11: Z16321-ABD (designed binder)
chain: B1 chain with V17I, F25Y, N26T, F43L
B12: Z16263-ABD (designed binder)
chain: B1 chain with V17A, E19K, Q21Y, M22W, F25Y, N26A, F43L
B13: Z16341-ABD (designed binder)
chain: B1 chain with V17L, E19A, N26A, K33R, F43L
B14: Z16245-ABD (designed binder)
chain: B1 chain with E19T, Q21Y, M22F, N26A, F43L
B15: Z16301-ABD (designed binder)
chain: B1 chain with V17I, E19A, N26E, F43L
B16: Z16312-ABD (designed binder)
chain: B1 chain with E19K, N26D, F43L
B17: Z16219-ABD (designed binder)
chain: B1 chain with V17I, E19H, M22L, N26S, F43L
B18: Z16207-ABD (designed binder)
chain: B1 chain with F25Y, F43L
B19: Z16264-ABD (designed binder)
chain: B1 chain with E19V, Q21Y, M22F, N26A, F43L
B20: Z16363-ABD (designed binder)
chain: B1 chain with E19Q, N26R, F43L
B21: Z16305-ABD (designed binder)
chain: B1 chain with E19S, Q21Y, M22F, F25Y, N26S, F43L
B22: Z16236-ABD (designed binder)
chain: B1 chain with V17T, F43L
B23: Z16329-ABD (designed binder)
chain: B1 chain with E19D, Q21Y, M22F, F25Y, N26K, F43L

Changes are numbered by the printed parent chain.

The target in this assay is T1, Human IL-1R-I-Fc (Creative BioMart cat. …). The assay can be described thus: ELISA, hIL-1R-I-Fc titration on Z-ABD. For orientation: An ELISA detects its analyte on a solid surface through an enzyme-linked reagent.
A word on the EC50: it is the concentration at which the effect is half-maximal. The low end stands for a more potent agent, the high end for a less potent agent. As to B1, the EC50 amounted to 0.45 nM. B2 gave a 50% effective concentration (EC50) of 0.22 nM. The figure for B3 is 0.39 nM; for B4 it is 0.49 nM; for B5 it is 0.54 nM. The figure for B6 is 0.26 nM; for B7 it is 0.28 nM. B8: the midpoint of the response, the EC50, lay at 0.3 nM. The molecule B9 yielded an EC50 of 0.17 nM. Next, B10: 0.21 nM; B11: 0.27 nM. Consider B12, for which the EC50 came out at 0.26 nM. For B13, the concentration for a half-maximal effect (EC50) turned out to be 0.17 nM.

Molecule B14 gave a 50% effective concentration (EC50) of 0.22 nM. Turning to B15, the EC50 was 0.22 nM. In other words, the sub-nanomolar range. The figure for B16 is 0.24 nM; for B17 it is 0.24 nM.

B18 had an EC50 of 0.22 nM. The molecule B19 displayed an EC50 of 0.3 nM. On to B20, for which the EC50 worked out at 0.2 nM. The EC50 values of the last two molecules are within 1.5-fold of each other. B21 showed a half-maximal effective concentration (EC50) of 0.22 nM. This EC50 and that of the molecule before are within 1.5-fold of each other.

With B22, the EC50 worked out at 0.24 nM.

The molecule B23 had an EC50 of 0.45 nM.
